Here are results for 19 compounds from the supplement of paper PMC12009370.

The other results are listed elsewhere or left out. Many values rest on one well or one pass, so single values are uncertain.

Assay [1] concerns IMR-32. Nature of the assay: drug sensitivity score (DSS), single drug with vehicle (DSS (score)); higher = more cytotoxic; extreme values may be limits of the assay. As to conditions: 72 h; co-treatment: vehicle (DMSO).
Assay [2] relates to SK-N-AS. The description is as above. As to conditions: 72 h; co-treatment: vehicle (DMSO).
The subject of assay [3] is SK-N-AS. Nature of the assay: drug sensitivity score (DSS) in combination with SL-176 (DSS (score)); higher = more cytotoxic; extreme values may be limits of the assay. As to conditions: 72 h; co-treatment: SL-176 11.2 uM (IC25 in IMR-32).
The test system of assay [4] is IMR-32. Described as above. The following applies: 72 h; co-treatment: SL-176 11.2 uM (IC25 in IMR-32).
In assay [5] the test system is SK-N-AS. Description: drug sensitivity score (DSS) in combination with GSK2830371 (DSS (score)); neuroblastoma lines; SL-176 and GSK2830371 are WIP1 inhibitors; higher = more cytotoxic; extreme values may be limits of the assay. As to conditions: 72 h; co-treatment: GSK2830371 at IC25 in IMR-32.
The subject of assay [6] is IMR-32. Described as above. The following applies: 72 h; co-treatment: GSK2830371 at IC25 in IMR-32.
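For drug sensitivity score (DSS) in combination with GSK2830371 in this document: neuroblastoma cells in 384-well plates, each compound at five concentrations, luminescence read-out, DSS derived from fitted concentration-response curve combining IC50 with minimum and maximum inhibition.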
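For drug sensitivity score (DSS) in combination with SL-176 in this document: cells in 384-well plates, luminescence read-out, each screening drug at five concentrations, DSS derived from the fitted concentration-response curve combining IC50 with minimum and maximum inhibition.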
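For drug sensitivity score (DSS), single drug with vehicle in this document: 384-well screen with five concentrations per compound and a luminescence read-out, DSS computed from the fitted dose-response curve combining IC50 with minimum and maximum inhibition.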

On to `CN(C)c1cc2c(cc1Sc1nc3c(N)nccc3n1CCNCC(C)(C)C)OCO2`, for which the drug sensitivity score in the assay on IMR-32 [1] amounted to 13.9; in the assay on SK-N-AS [2] it was 12.3; in the assay with SK-N-AS [3], 12.6; in the assay with IMR-32 [4] it was 9.8; in the assay on SK-N-AS [5], 12.3; in the assay on IMR-32 [6], 11.7.

On to `CCC1(c2ccc(N)cc2)CCC(=O)NC1=O` (centres undefined) [Aminoglutethimide], for which the drug sensitivity score in the assay on IMR-32 [1] was found to be 0; in the assay on SK-N-AS [2] it was 0; in the assay with SK-N-AS [3], 0; with IMR-32 [4], 2.1; with SK-N-AS [5], 0; in the assay with IMR-32 [6], 0.

As for `COc1cc(C)[nH]c(=O)c1CNC(=O)c1c(C)n([C@H](C)C2CCOCC2)c2ccccc12`, the drug sensitivity score with IMR-32 [1], with SK-N-AS [2], in the assay on SK-N-AS [3], with IMR-32 [4], with SK-N-AS [5] and in the assay with IMR-32 [6] was 0 throughout.

As to `Clc1ccccc1C(c1ccccc1)(c1ccccc1)n1cccn1`, the drug sensitivity score with IMR-32 [1] was determined as 0; in the assay with SK-N-AS [2], 0; in the assay with SK-N-AS [3], 0; with IMR-32 [4], 0.5; in the assay on SK-N-AS [5], 0; in the assay with IMR-32 [6], 0.

As for `O=C(O)CNC(=O)c1c(O)c2ccccc2n(Cc2ccccc2)c1=O`, the drug sensitivity score was 0 with IMR-32 [1]; 0 with SK-N-AS [2]; 0 in the assay on SK-N-AS [3]; 2.8 in the assay on IMR-32 [4]; 0 in the assay with SK-N-AS [5]; 0 in the assay with IMR-32 [6].

As for `N.N.[Cl][Pt][Cl]` [Cisplatin], the drug sensitivity score in the assay on IMR-32 [1] was 29.4; with SK-N-AS [2], 11.1; in the assay with SK-N-AS [3], 8.1; in the assay on IMR-32 [4], 28.4; with SK-N-AS [5] it was 10.5; in the assay with IMR-32 [6], 30.2.

With `CC(O)(CS(=O)(=O)c1ccc(F)cc1)C(=O)Nc1ccc(C#N)c(C(F)(F)F)c1` (centres undefined) [Bicalutamide], the drug sensitivity score in the assay with IMR-32 [1] amounted to 2.5; in the assay on SK-N-AS [2], 0; in the assay with SK-N-AS [3], 0; in the assay with IMR-32 [4] it was 0; in the assay on SK-N-AS [5], 0.4; in the assay with IMR-32 [6], 0.

For `Cc1c(N)nc([C@H](CC(N)=O)NC[C@H](N)C(N)=O)nc1C(=O)N[C@H](C(=O)N[C@H](C)[C@@H](O)[C@H](C)C(=O)N[C@H](C(=O)NCCc1nc(-c2nc(C(=O)NCCC[S+](C)C)cs2)cs1)[C@@H](C)O)[C@@H](OC1OC(CO)C(O)C(O)C1OC1OC(CO)C(O)C(OC(N)=O)C1O)c1cnc[nH]1` (some centres undefined) [Bleomycin], the drug sensitivity score in the assay with IMR-32 [1] worked out at 13.3; in the assay with SK-N-AS [2], 3.3; with SK-N-AS [3], 2.8; in the assay with IMR-32 [4], 11.6; with SK-N-AS [5], 4; in the assay on IMR-32 [6] it was 16.8.

Turning to `COCC1(CO)C(=O)C2CCN1CC2` (centres undefined), the drug sensitivity score in the assay with IMR-32 [1], with SK-N-AS [2], in the assay with SK-N-AS [3], in the assay on IMR-32 [4], in the assay with SK-N-AS [5] and in the assay on IMR-32 [6] was 0 throughout.

In the case of `Cn1cc(C2=C(c3cn(C4CCN(Cc5ccccn5)CC4)c4ccccc34)C(=O)NC2=O)c2ccccc21` [Enzastaurin], the drug sensitivity score in the assay with IMR-32 [1] is 0; in the assay on SK-N-AS [2], 1.1; with SK-N-AS [3], 2.6; with IMR-32 [4], 7; with SK-N-AS [5] it was 2.2; with IMR-32 [6], 0.

Regarding `CC1(C)C(C(=O)Nc2ccc(S(=O)(=O)c3ccc(NC(=O)C4C(C)(C)C4(C)C)cc3)cc2)C1(C)C`, the drug sensitivity score stood at 0 in the assay with IMR-32 [1]; 3.8 in the assay on SK-N-AS [2]; 4.2 with SK-N-AS [3]; 2.7 in the assay on IMR-32 [4]; 4.1 with SK-N-AS [5]; 0 with IMR-32 [6].

As for `CC[C@@H](C(=O)[C@@H](C)[C@@H](O)[C@H](C)[C@@H]1O[C@@H]([C@@H](CC)C(=O)O)CC[C@@H]1C)[C@H]1O[C@]2(C=C[C@@H](O)[C@]3(CC[C@@](C)([C@H]4CC[C@](O)(CC)[C@H](C)O4)O3)O2)[C@H](C)C[C@@H]1C` [Salinomycin], the drug sensitivity score in the assay on IMR-32 [1] was 28.3; in the assay with SK-N-AS [2] it was 5.6; with SK-N-AS [3], 8.2; in the assay on IMR-32 [4], 30.1; in the assay on SK-N-AS [5] it was 17.8; in the assay with IMR-32 [6] it was 29.7.

In the case of `C=C1C[C@@H]2[C@H](CC[C@]3(C)C(=O)CC[C@@H]23)[C@@]2(C)C=CC(=O)C=C12` [Exemestane], the drug sensitivity score in the assay with IMR-32 [1] was found to be 0; with SK-N-AS [2] it was 0.4; in the assay with SK-N-AS [3] it was 0.8; with IMR-32 [4] it was 0; in the assay on SK-N-AS [5], 0; with IMR-32 [6], 0.8.

Take `CCNC(=O)C[C@@H]1N=C(c2ccc(Cl)cc2)c2cc(OC)ccc2-n2c(C)nnc21` [Molibresib]: the drug sensitivity score in the assay with IMR-32 [1] is 4.5; in the assay with SK-N-AS [2], 6.4; in the assay on SK-N-AS [3] it was 6.6; with IMR-32 [4] it was 7.9; with SK-N-AS [5] it was 6.9; in the assay on IMR-32 [6], 9.9.

Take `CCC/C=C/C=C/C(=O)O[C@H]1/C(=C/C(=O)OC)C[C@H]2C[C@H]([C@@H](C)O)OC(=O)C[C@H](O)C[C@@H]3C[C@H](OC(C)=O)C(C)(C)[C@](O)(C[C@@H]4C/C(=C/C(=O)OC)C[C@H](/C=C/C(C)(C)[C@]1(O)O2)O4)O3` [Bryostatin 1]: the drug sensitivity score in the assay with IMR-32 [1], in the assay with SK-N-AS [2], in the assay with SK-N-AS [3], in the assay with IMR-32 [4], in the assay on SK-N-AS [5] and in the assay on IMR-32 [6] was 0 in each case.

Consider `CCc1c(C(=O)C(N)=O)c2c(OCC(=O)O)cccc2n1Cc1ccccc1` [Varespladib], for which the drug sensitivity score in the assay on IMR-32 [1] is 0; with SK-N-AS [2] it was 0; in the assay on SK-N-AS [3], 1; in the assay with IMR-32 [4], 0; with SK-N-AS [5] it was 0; in the assay on IMR-32 [6] it was 0.

For the compound `CCOc1ccccc1-n1c(C(C)N2CCN(C(=O)COc3ccc(Cl)cc3)CC2)nc2ccccc2c1=O` (centres undefined) [Erastin], the drug sensitivity score was 21.3 with IMR-32 [1]; 13.3 in the assay on SK-N-AS [2]; 11 with SK-N-AS [3]; 16.9 in the assay on IMR-32 [4]; 13.7 in the assay on SK-N-AS [5]; 18.4 in the assay with IMR-32 [6].

In the case of `O=C(Nc1ccncc1)C(=O)c1cn(Cc2ccc(Cl)cc2)c2ccccc12` [Indibulin], the drug sensitivity score in the assay with IMR-32 [1] amounted to 22; in the assay with SK-N-AS [2], 22.6; with SK-N-AS [3] it was 21.3; in the assay with IMR-32 [4], 27; with SK-N-AS [5], 21.3; in the assay on IMR-32 [6] it was 27.6.

For the compound `Cc1sc2c(c1C)C(c1ccc(Cl)cc1)=N[C@@H](CC(=O)Nc1ccc(O)cc1)c1nnc(C)n1-2` [Birabresib], the drug sensitivity score came out at 14.6 in the assay on IMR-32 [1]; 8.6 in the assay on SK-N-AS [2]; 9.4 in the assay on SK-N-AS [3]; 15.9 in the assay with IMR-32 [4]; 9.9 in the assay with SK-N-AS [5]; 18.2 in the assay with IMR-32 [6].
